Measurements: publication PMC5844987
Results are given in words; binding and its absence hold for the method and conditions named. Some entries that bind do so weakly or less than the wild type.

By UniProt entry, the sequences of proteins in these tests, tags left out.
UniProt P49597: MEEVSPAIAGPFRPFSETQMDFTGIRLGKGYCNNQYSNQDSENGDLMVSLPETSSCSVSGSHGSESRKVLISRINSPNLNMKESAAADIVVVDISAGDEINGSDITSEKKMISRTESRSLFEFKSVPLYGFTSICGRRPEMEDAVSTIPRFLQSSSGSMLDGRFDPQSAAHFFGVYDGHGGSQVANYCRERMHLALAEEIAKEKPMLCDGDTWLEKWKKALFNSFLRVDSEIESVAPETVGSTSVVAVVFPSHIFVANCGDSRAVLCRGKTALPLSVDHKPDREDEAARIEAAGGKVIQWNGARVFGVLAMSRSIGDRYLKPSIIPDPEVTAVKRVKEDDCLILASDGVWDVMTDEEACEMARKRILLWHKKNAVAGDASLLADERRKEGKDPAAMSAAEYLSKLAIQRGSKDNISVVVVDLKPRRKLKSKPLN

Columns and labels:
[1] = target: ABA receptor PYL13 (Arabidopsis) (UniProt Q9SN51); test: AlphaScreen or HTRF; as a9 but with 100 μM ABA
[2] = target: T1, ABA receptor PYL3 (Arabidopsis) (UniProt Q9SSM7); test: AlphaScreen or HTRF; as a9 but with 100 μM ABA
T1 sequence (chain, N-terminal mono-biotinylation (BirA)): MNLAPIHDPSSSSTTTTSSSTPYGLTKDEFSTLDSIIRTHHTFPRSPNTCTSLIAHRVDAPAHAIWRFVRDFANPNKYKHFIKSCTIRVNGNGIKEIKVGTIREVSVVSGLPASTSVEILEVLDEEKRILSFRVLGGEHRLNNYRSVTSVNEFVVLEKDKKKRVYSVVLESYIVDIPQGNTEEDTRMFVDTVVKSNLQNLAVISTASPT

[3] = target: ABA receptor PYL13 (Arabidopsis) (UniProt Q9SN51); test: AlphaScreen or HTRF; biotinylated ABA receptor and AGIA-tagged ABA receptor, crude wheat cell-free translation mixtures, without ABA; 14 x 14 matrix; pair = signal at least two times that of DHFR
[4] = target: T1, ABA receptor PYL3 (Arabidopsis); test: as above
[5] = target: type 2C-A protein phosphatase ABI1 (Arabidopsis) (UniProt P49597); test: AlphaScreen or HTRF; as a1 but with ABA (10 μM in Fig. 1b, concentration series in Fig. 1c,d, 100 μM in Fig. 1e)
[6] = target: type 2C-A protein phosphatase ABI1 (Arabidopsis) (UniProt P49597); test: AlphaScreen or HTRF; as a1 but with JFA1 instead of ABA (100 μM in Fig. 2b, dose series in Fig. 2c); signal relative to 1% DMSO
[7] = target: type 2C-A protein phosphatase ABI1 (Arabidopsis) (UniProt P49597); test: AlphaScreen or HTRF; as a1 but with JFA2 instead of ABA (100 μM in Fig. 2b, dose series in Fig. 2c); signal relative to 1% DMSO
[8] = target: type 2C-A protein phosphatase ABI1 (Arabidopsis) (UniProt P49597); test: AlphaScreen or HTRF; as a1 but with pyrabactin instead of ABA (100 μM in Fig. 2b, dose series in Fig. 2c); signal relative to 1% DMSO
[9] = target: type 2C-A protein phosphatase ABI1 (Arabidopsis) (UniProt P49597); test: AlphaScreen or HTRF; as a1 but with quinabactin instead of ABA (100 μM in Fig. 2b, dose series in Fig. 2c); signal relative to 1% DMSO
[10] = target: T2, type 2C-A protein phosphatase AHG3 (Arabidopsis) (UniProt P49598); test: AlphaScreen or HTRF; as a1/a2 (Fig. 1e, absence or presence of 100 μM ABA); the sentence does not tell in which condition the pair was detected
T2 sequence: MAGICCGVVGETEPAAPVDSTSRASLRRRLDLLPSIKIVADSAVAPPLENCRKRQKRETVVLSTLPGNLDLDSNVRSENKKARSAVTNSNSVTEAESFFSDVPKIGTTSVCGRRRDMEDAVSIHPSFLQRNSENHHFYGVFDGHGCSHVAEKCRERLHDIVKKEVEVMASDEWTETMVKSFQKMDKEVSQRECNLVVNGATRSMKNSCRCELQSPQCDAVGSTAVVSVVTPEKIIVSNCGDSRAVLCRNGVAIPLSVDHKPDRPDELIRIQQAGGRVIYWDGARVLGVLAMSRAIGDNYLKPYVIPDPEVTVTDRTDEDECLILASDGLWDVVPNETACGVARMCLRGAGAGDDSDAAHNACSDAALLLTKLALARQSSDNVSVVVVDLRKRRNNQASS

[11] = target: T3, type 2C-A protein phosphatase HAI2 (Arabidopsis) (UniProt Q9LNW3); test: as above
T3 sequence: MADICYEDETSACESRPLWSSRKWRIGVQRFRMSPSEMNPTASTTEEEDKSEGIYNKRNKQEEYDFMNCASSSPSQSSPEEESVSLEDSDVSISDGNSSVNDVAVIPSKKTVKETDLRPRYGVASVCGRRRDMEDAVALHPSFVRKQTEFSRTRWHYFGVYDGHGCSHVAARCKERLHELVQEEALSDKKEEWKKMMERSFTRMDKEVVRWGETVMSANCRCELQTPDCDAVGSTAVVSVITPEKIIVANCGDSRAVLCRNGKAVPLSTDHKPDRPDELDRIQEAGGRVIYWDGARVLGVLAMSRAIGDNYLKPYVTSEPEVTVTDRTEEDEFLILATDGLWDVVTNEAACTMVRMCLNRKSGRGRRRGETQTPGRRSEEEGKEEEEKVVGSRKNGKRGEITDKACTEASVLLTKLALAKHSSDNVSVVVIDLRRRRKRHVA

[12] = target: type 2C-A protein phosphatase ABI1 (Arabidopsis) (UniProt P49597); test: AlphaScreen or HTRF; biotinylated ABA receptor and FLAG-PP2CA, crude wheat cell-free translation mixtures, without ABA (DMSO); 100 mM Tris-HCl pH 8.0, 0.1% Tween20, 1 mg/mL BSA, 25 °C 1 h; streptavidin donor beads, protein A acceptor beads with anti-FLAG M2; pair = signal at least five times that of DHFR
[13] = target: T4, type 2C-A protein phosphatase AHG1 (Arabidopsis) (UniProt Q9FLI3); test: AlphaScreen or HTRF; as a1/a2 (Fig. 1e, absence or presence of 100 μM ABA); the sentence does not tell in which condition the pair was detected
T4 sequence: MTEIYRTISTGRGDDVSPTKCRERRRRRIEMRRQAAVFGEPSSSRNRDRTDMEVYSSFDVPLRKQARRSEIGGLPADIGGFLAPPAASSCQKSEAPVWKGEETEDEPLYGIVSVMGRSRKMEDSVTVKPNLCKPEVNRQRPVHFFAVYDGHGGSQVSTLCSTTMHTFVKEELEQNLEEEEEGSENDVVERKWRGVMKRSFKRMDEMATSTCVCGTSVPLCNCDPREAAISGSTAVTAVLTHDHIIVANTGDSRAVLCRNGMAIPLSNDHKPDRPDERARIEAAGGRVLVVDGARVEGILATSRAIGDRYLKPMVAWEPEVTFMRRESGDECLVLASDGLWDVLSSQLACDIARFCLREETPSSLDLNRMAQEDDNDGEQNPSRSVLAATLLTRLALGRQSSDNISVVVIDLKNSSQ

[14] = target: T5, ABA receptor PYL10 (Arabidopsis) (UniProt Q8H1R0); test: AlphaScreen or HTRF; as a9 but with 100 μM ABA
T5 sequence (chain, N-terminal mono-biotinylation (BirA)): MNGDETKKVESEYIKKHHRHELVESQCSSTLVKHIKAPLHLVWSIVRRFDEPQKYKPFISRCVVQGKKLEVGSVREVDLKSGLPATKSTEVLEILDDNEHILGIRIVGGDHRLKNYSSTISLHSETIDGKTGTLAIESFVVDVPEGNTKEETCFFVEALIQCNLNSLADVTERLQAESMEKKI

[15] = target: T5, ABA receptor PYL10 (Arabidopsis); test: AlphaScreen or HTRF; biotinylated ABA receptor and AGIA-tagged ABA receptor, crude wheat cell-free translation mixtures, without ABA; 14 x 14 matrix; pair = signal at least two times that of DHFR

Measured: binding

B1: ABA receptor PYL13 (receptor, UniProt Q9SN51 1-164)
chain: MESSKQKRCRSSVVETIEAPLPLVWSILRSFDKPQAYQRFVKSCTMRSGGGGGKGGEGKGSVRDVTLVSGFPADFSTERLEELDDESHVMVVSIIGGNHRLVNYKSKTKVVASPEDMAKKTVVVESYVVDVPEGTSEEDTIFFVDNIIRYNLTSLAKLTKKMMK
modifications: N-terminal mono-biotinylation (BirA)
binds: [1] | [2] | [3] | [4]

B2: ABA receptor PYL11 (receptor, UniProt Q9FJ50 1-161)
chain: METSQKYHTCGSTLVQTIDAPLSLVWSILRRFDNPQAYKQFVKTCNLSSGDGGEGSVREVTVVSGLPAEFSRERLDELDDESHVMMISIIGGDHRLVNYRSKTMAFVAADTEEKTVVVESYVVDVPEGNSEEETTSFADTIVGFNLKSLAKLSERVAHLKL
modifications: N-terminal mono-biotinylation (BirA)
binds: [5] | [6] | [7] | [8] | [9] | [10] | [11] | [12]

B3: ABA receptor PYL12 (receptor, UniProt Q9FJ49 1-159)
chain: MKTSQEQHVCGSTVVQTINAPLPLVWSILRRFDNPKTFKHFVKTCKLRSGDGGEGSVREVTVVSDLPASFSLERLDELDDESHVMVISIIGGDHRLVNYQSKTTVFVAAEEEKTVVVESYVVDVPEGNTEEETTLFADTIVGCNLRSLAKLSEKMMELT
modifications: N-terminal mono-biotinylation (BirA)
binds: [5] | [11] | [12]

B4: ABA receptor PYL8 (receptor, UniProt Q9FGM1 1-188)
chain: MEANGIENLTNPNQEREFIRRHHKHELVDNQCSSTLVKHINAPVHIVWSLVRRFDQPQKYKPFISRCVVKGNMEIGTVREVDVKSGLPATRSTERLELLDDNEHILSIRIVGGDHRLKNYSSIISLHPETIEGRIGTLVIESFVVDVPEGNTKDETCYFVEALIKCNLKSLADISERLAVQDTTESRV
modifications: N-terminal mono-biotinylation (BirA)
binds: [13] | [12]

B5: ABA receptor PYL9 (receptor, UniProt Q84MC7 1-187)
chain: MMDGVEGGTAMYGGLETVQYVRTHHQHLCRENQCTSALVKHIKAPLHLVWSLVRRFDQPQKYKPFVSRCTVIGDPEIGSLREVNVKSGLPATTSTERLELLDDEEHILGIKIIGGDHRLKNYSSILTVHPEIIEGRAGTMVIESFVVDVPQGNTKDETCYFVEALIRCNLKSLADVSERLASQDITQ
modifications: N-terminal mono-biotinylation (BirA)
binds: [10] | [12]

B6: ABA receptor PYL6 (receptor, UniProt Q8S8E3 1-215)
chain: MPTSIQFQRSSTAAEAANATVRNYPHHHQKQVQKVSLTRGMADVPEHVELSHTHVVGPSQCFSVVVQDVEAPVSTVWSILSRFEHPQAYKHFVKSCHVVIGDGREVGSVREVRVVSGLPAAFSLERLEIMDDDRHVISFSVVGGDHRLMNYKSVTTVHESEEDSDGKKRTRVVESYVVDVPAGNDKEETCSFADTIVRCNLQSLAKLAENTSKFS
modifications: N-terminal mono-biotinylation (BirA)
binds: [10]

B7: ABA receptor PYL3 (receptor, UniProt Q9SSM7 1-209)
chain: MNLAPIHDPSSSSTTTTSSSTPYGLTKDEFSTLDSIIRTHHTFPRSPNTCTSLIAHRVDAPAHAIWRFVRDFANPNKYKHFIKSCTIRVNGNGIKEIKVGTIREVSVVSGLPASTSVEILEVLDEEKRILSFRVLGGEHRLNNYRSVTSVNEFVVLEKDKKKRVYSVVLESYIVDIPQGNTEEDTRMFVDTVVKSNLQNLAVISTASPT
modifications: N-terminal mono-biotinylation (BirA)
binds: [2] | [4]

B8: ABA receptor PYL10 (receptor, UniProt Q8H1R0 1-183)
chain: MNGDETKKVESEYIKKHHRHELVESQCSSTLVKHIKAPLHLVWSIVRRFDEPQKYKPFISRCVVQGKKLEVGSVREVDLKSGLPATKSTEVLEILDDNEHILGIRIVGGDHRLKNYSSTISLHSETIDGKTGTLAIESFVVDVPEGNTKEETCFFVEALIQCNLNSLADVTERLQAESMEKKI
modifications: N-terminal mono-biotinylation (BirA)
binds: [10] | [12]

B9: ABA receptor PYL7 (receptor, UniProt Q1ECF1 1-211)
chain: MEMIGGDDTDTEMYGALVTAQSLRLRHLHHCRENQCTSVLVKYIQAPVHLVWSLVRRFDQPQKYKPFISRCTVNGDPEIGCLREVNVKSGLPATTSTERLEQLDDEEHILGINIIGGDHRLKNYSSILTVHPEMIDGRSGTMVMESFVVDVPQGNTKDDTCYFVESLIKCNLKSLACVSERLAAQDITNSIATFCNASNGYREKNHTETNL
modifications: N-terminal mono-biotinylation (BirA)
binds: [10]

B10: ABA receptor PYL5 (receptor, UniProt Q9FLB1 1-203)
chain: MRSPVQLQHGSDATNGFHTLQPHDQTDGPIKRVCLTRGMHVPEHVAMHHTHDVGPDQCCSSVVQMIHAPPESVWALVRRFDNPKVYKNFIRQCRIVQGDGLHVGDLREVMVVSGLPAVSSTERLEILDEERHVISFSVVGGDHRLKNYRSVTTLHASDDEGTVVVESYIVDVPPGNTEEETLSFVDTIVRCNLQSLARSTNRQ
modifications: N-terminal mono-biotinylation (BirA)
binds: [14] | [5] | [10] | [15] | [12]
